Assay results as given in article PMC4336329 (PLoS ONE, 2015).
Among all 310,000 compounds or so, about 14,000 (4.5%) showed an effect of 50% or more. Effects have a minus sign here. This is one part of the list.

target: human ether-à-go-go-related gene (hERG) potassium channel (human, UniProt Q12809); test: primary screen, population patch clamp on CHO cells stably expressing hERG
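Also: peak tail current of the secondary pulse compared with the same well before compound.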

Chain of human ether-à-go-go-related gene (hERG) potassium channel (Q12809 whole entry, looked up): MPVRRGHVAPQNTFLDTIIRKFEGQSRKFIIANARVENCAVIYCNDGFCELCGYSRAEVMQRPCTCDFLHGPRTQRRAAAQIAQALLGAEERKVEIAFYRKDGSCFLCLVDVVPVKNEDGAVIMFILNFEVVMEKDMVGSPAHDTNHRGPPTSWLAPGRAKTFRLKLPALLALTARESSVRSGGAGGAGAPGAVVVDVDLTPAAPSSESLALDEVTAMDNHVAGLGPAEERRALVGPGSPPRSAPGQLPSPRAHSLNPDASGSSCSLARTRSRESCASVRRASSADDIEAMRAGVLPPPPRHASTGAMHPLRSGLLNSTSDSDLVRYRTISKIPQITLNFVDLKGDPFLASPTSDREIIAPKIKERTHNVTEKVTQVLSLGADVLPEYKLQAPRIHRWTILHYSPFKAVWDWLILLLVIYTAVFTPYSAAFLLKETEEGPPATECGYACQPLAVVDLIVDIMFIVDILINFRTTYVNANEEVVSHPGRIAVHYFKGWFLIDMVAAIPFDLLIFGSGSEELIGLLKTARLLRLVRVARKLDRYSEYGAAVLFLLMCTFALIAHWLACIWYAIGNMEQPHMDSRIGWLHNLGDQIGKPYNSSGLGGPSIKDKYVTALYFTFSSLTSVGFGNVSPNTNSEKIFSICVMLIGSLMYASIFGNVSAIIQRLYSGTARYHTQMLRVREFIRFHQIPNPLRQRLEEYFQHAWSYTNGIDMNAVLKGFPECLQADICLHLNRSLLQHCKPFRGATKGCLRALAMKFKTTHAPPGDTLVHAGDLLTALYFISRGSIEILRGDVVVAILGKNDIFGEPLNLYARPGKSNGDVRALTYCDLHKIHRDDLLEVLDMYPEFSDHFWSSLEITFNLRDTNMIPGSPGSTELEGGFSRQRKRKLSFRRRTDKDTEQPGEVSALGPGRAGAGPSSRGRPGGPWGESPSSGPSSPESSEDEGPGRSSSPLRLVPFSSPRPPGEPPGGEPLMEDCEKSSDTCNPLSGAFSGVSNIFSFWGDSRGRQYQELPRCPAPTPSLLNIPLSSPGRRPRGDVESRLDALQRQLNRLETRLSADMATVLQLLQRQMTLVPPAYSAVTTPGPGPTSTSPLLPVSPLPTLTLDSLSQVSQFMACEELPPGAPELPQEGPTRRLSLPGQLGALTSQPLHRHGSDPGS

| Compound | hERG current change (%, negative = inhibition) at 10uM [%] |
| --- | --- |
| O=C(NCC1CCCO1)c1ccc(Cl)c(S(=O)(=O)N2CCOCC2)c1 (stereo not drawn) | 12.7 |
| CCOc1ccc2nc(NC(=O)NC3CCCCC3)sc2c1 | 34.2 |
| O=C(CN(CC1CCCO1)C(=O)CNS(=O)(=O)c1ccc(F)cc1)NCc1ccco1 (stereo not drawn) | 8.51 |
| O=C(Nc1ccc(Br)c(C(F)(F)F)c1)c1ccccc1 | 27.3 |
| CCOc1ccc(N=CNc2ccc(OCC)cc2)cc1 | -17.5 |
| Fc1cccc(CCN2C(=S)NC[C@@H]2CC2CCCCC2)c1 | 11.4 |
| Cc1ccc(C(=O)N(C)CC(=O)Nc2ccc(F)c(F)c2F)o1 | 11.1 |
| COc1ccccc1C(=O)NC(=O)COC(=O)CCOc1ccccc1C | 4.28 |
| Cc1ccc2nc(N(CCCN(C)C)C(=O)c3cc4ccccc4oc3=O)sc2c1.Cl | -33.7 |
| COc1ccc(COCC(O)CN2CCc3ccccc3C2)cc1OC.Cl (stereo not drawn) | 1.52 |
| COc1ccc(C)cc1S(=O)(=O)Nc1cccc(Cl)c1 | 19.1 |
| CCCc1cc(=O)n2[nH]c(-c3ccc(C)cc3)cc2n1 | -0.208 |
| O=C1CCC/C(=N/NC(=O)c2ccc(CN3c4cccc5cccc(c45)S3(=O)=O)cc2)C1 | -0.846 |
| CCCC(=O)Nc1ccc(OCC(=O)OC)cc1 | -3.23 |
| CO/N=C/c1cn(-c2ccc(Cl)cc2)nn1 | -2.53 |
| COC(=O)C1=C(N)Oc2cc(C)n(Cc3cccnc3)c(=O)c2C1c1cc(OC)ccc1OC (stereo not drawn) | 3.97 |
| Cn1c(=NC(=O)c2ccccc2[N+](=O)[O-])sc2cccc(F)c21 | -1.1 |
| Cc1ccccc1-c1nc(CS(=O)(=O)CC(=O)NCCCN2C(C)CCCC2C)c(C)o1 (stereo not drawn) | -22 |
| C=CCN(Cc1cccs1)C(=O)CN1CCN(S(=O)(=O)c2ccc3c(c2)OCCCO3)CC1 | -40.2 |
| O=C1c2ccccc2C(=O)N1CC1=CCS(=O)(=O)C1 | 4.13 |
| Cc1nn(-c2ccc(Cl)cc2)c(N)c1C(O)(CSc1nccn1C)C(F)(F)F (stereo not drawn) | -22.9 |
| COc1cccc(CNC(=O)CCC2CCCN(C(=O)c3ccoc3)C2)c1 (stereo not drawn) | 24.9 |
| COc1cc(C(=O)NNC(=O)c2cccc(Cl)c2)ccc1OCC(=O)N1CCOCC1 | -43.6 |

| Compound | hERG current change (%, negative = inhibition) at 10uM [%] |
| --- | --- |
| C=CC(=O)NCc1ccc(-c2csnn2)cc1 | -19.9 |
| CC1(C(=O)NNC(=O)C2CCCCC2)CC1(Cl)Cl (stereo not drawn) | 15.2 |
| COc1ccc(CNC(=O)COC(=O)CN2C(=O)NC3(CCCC3)C2=O)cc1 | -8.23 |
| CCC1=NN(C(=O)C(=O)NCCc2ccccc2)C(O)(C(F)(F)F)C1 (stereo not drawn) | -9.06 |
| Cc1ccccc1CSc1ccc(-c2ccc3c(c2)OCO3)nn1 | -13.3 |
| O=C(CSc1ccc2c(c1)OCCO2)Nc1ncccc1O | 7.03 |
| O=C(CC1Oc2ccccc2NC1=O)NCCc1ccccc1 (stereo not drawn) | -4.18 |
| CC(=O)c1ccc(OCc2cc(C(=O)N3CCN4CCCC4C3)no2)cc1 (stereo not drawn) | 8.97 |
| O=c1[nH]c(=O)n(Cc2ccc(F)cc2)c(O)c1C=NCCCn1ccnc1 | 4.08 |
| CC1(c2ccc3ccccc3c2)NC(=O)N(CC(=O)O)C1=O (stereo not drawn) | -45.7 |
| COc1ccccc1C1=NOC(C)(c2nnc(-c3cccc(Cl)c3)o2)C1 (stereo not drawn) | 8.33 |
| COc1ccccc1C(C#N)N1N=C(C)CC1(C)C (stereo not drawn) | 7.5 |
| CCOc1ccc(N=NC2C(=O)N(C(N)=S)N=C2C)cc1 (stereo not drawn) | 17.7 |
| Nc1nc(CN2CCN(C(=O)c3ccco3)CC2)nc(Nc2cccc(Cl)c2)n1 | -78.6 |
| CC1CCCN(CCC(=O)Nc2ccc3c(c2)CCC3)C1.Cl (stereo not drawn) | -33.5 |
| Cc1nc(NC(=O)c2ccc(Cl)cc2)sc1Cc1ccc2c(c1)OCO2 | 24.3 |
| CCN1C(=O)NC(c2cc(Br)ccc2OC)C(C(=O)OC)=C1C (stereo not drawn) | -10.2 |
| CCOn1c(=O)c(-c2ccccc2)[n+]([O-])c2ccccc21 | 1.67 |
| CCC(Cc1ccccc1)NC(=O)CCNS(=O)(=O)c1cc(Br)cnc1N (stereo not drawn) | -6.53 |
| CCN(Cc1ccccc1)C(=O)c1oc2ccc(C)cc2c1C | 8.98 |
| Cc1cc(C)cc(NC(=O)c2cc(S(=O)(=O)N3CCCC3)cn2C)c1 | -4.82 |
| c1ccc(-n2c(Cc3cn4ccsc4n3)nnc2N2CCOCC2)cc1 | -0.0304 |
| Cc1ccc(Cl)cc1N1CCN(S(=O)(=O)c2ccc3[nH]c(=O)ccc3c2)CC1 | 7.74 |

| Compound | hERG current change (%, negative = inhibition) at 10uM [%] |
| --- | --- |
| CCCCCCCNC(=O)C1(CC2CC(c3cccc(Br)c3)=NO2)CCN(C(=O)C2(C)CC2)CC1 (stereo not drawn) | -26 |
| Cc1cc2oc(=O)cc(Cn3ccnc3)c2cc1C | 4.08 |
| Cc1ccc(NC(=O)c2scc3c2CCCC3)cc1 | 3.11 |
| COc1ccc(OC)c(NC(=O)c2cc(S(=O)(=O)N3CCCC3)cn2C)c1 | -42.8 |
| COC(=O)c1ccc2c(=O)n(-c3ccc(OC)cc3)c(=S)[nH]c2c1 | 18.1 |
| CNC(=O)COc1ncnc2sc(C)c(C)c12 | 1.11 |
| FC(F)(F)c1ccccc1-n1c(-c2cnccn2)n[nH]c1=S | 13 |
| O=C(COC(=O)COc1ccccc1)NC1CCCC1 | 10.5 |
| Cc1ccc(C(=O)OCN2C(=O)c3ccccc3C2=O)cc1S(=O)(=O)N1CCOCC1 | -10.6 |
| COc1ccc(CC(=O)Nc2ccc(-c3cn4ccc(C)cc4n3)cc2)cc1 | -0.263 |
| O=C(Nc1ccc(S(=O)(=O)N2CCOCC2)cc1)c1cccc([N+](=O)[O-])c1 | 14.7 |
| O=C(NC(=O)N1CCCCC1)c1ccccc1 | 10.7 |
| Cc1cccc(NC(=O)CCOc2ccccc2)c1 | 5.5 |
| CC(C)C1Oc2ccccc2N(CC(=O)NC2CCCCC2)C1=O (stereo not drawn) | -1.11 |
| COc1cccc(N=Cc2nc(-c3ccccc3)oc2OC(C)=O)c1 | -13.3 |
| N/C(=N\OC(=O)c1ccc(Cl)c(Cl)c1)c1ccccn1 | 3.76 |
| CCC(c1nnnn1C1CCCC1)N1CCN(c2ccccc2F)CC1 (stereo not drawn) | -14.2 |
| O=C(CCN1C(=O)/C(=C/c2cccs2)SC1=S)Nc1ccc(C(=O)O)cc1 | 5.49 |
| COc1ccc(S(=O)(=O)N(CCCN2CCOCC2)Cc2cccc3ccccc23)cc1 | -48.6 |
| O=C(CSc1nnnn1-c1ccc(O)cc1)c1ccc(F)cc1 | -5.76 |
| Cc1ccc(C(=O)N/C(=C\c2ccccc2F)c2nc(=S)[nH][nH]2)cc1 | 14.4 |
| CCc1cccc(C)c1NC(=S)N1CCCCC1c1cccnc1 (stereo not drawn) | -8.54 |
| N=c1n(CCOc2ccccc2)c2ccccc2n1CCN1CCOCC1 | -42.9 |

| Compound | hERG current change (%, negative = inhibition) at 10uM [%] |
| --- | --- |
| NC(=O)c1ccccc1N | 12.4 |
| CC1=C(C(=O)OCc2ccccc2)C(c2ccc(Cl)cc2Cl)NC(=O)N1CCCC(=O)O (stereo not drawn) | 1.31 |
| O=C(Nc1nnc(C2CC2)s1)C1COc2ccccc2O1 (stereo not drawn) | 23.7 |
| COc1ccc(OCc2nnc(NC(=O)Nc3ccccc3F)s2)cc1 | -2.13 |
| CC(=O)c1cc(C(c2csc(C(C)=O)c2)c2csc(C(C)=O)c2)cs1 | -72.6 |
| Cc1nc(CCN2C(=O)c3ccccc3C2=O)n[nH]1 | 0.341 |
| Cc1cc(N/N=C/c2ccc(F)cc2)nc(NCc2ccccc2)n1 | -64.2 |
| CC(C)[C@@H](C(=O)NCc1ccco1)N1C(=O)N2CCc3c([nH]c4ccccc34)[C@@]2(C)C1=O | -15.6 |
| COc1ccccc1CNC(=O)[C@H](NC(=O)C1CCN(C(=O)[C@@H](N)CCSC)CC1)C(C)C | -1.58 |
| CCc1ccc(NC(=O)CSc2nnc(COc3ccc4c(c3)CCCC4)o2)cc1 | -9.57 |
| CN1C(=O)C(=O)/C(=C(/O)c2ccc(Br)cc2)C1c1cccc([N+](=O)[O-])c1 (stereo not drawn) | 17 |
| COc1ccc(NP(=O)(Nc2ccc(OC)cc2)Oc2ccccc2)cc1 | -13.9 |
| CCCC(C)c1nnc(NC(=O)C2CC(=O)N(CCc3ccc(F)cc3)C2)s1 (stereo not drawn) | -30.1 |
| CCCn1c(=O)c2ccccc2n2c(SCCNCCO)nnc12.O=C(O)C(=O)O | 11.9 |
| CN(C)c1ccc(-c2nnn(Cc3ccccc3Br)n2)cc1 | -15.7 |
| CCc1ccc(N2C(=O)C3ON(c4ccccc4)C(c4ccco4)C3C2=O)cc1 (stereo not drawn) | 8.67 |
| Cc1ccc(NC(=O)CSc2nnc(-c3ccncc3)s2)cc1 | 5.52 |
| CCCCc1ccc(NC(=S)NCCO)cc1 | -14 |
| CC(=O)C1C(=O)NC23CCCCC2C1c1ccccc1O3 (stereo not drawn) | -0.592 |
| Cc1ccc(/C=C/C(=O)N(Cc2cccs2)C2CCS(=O)(=O)C2)cc1 (stereo not drawn) | -79 |
| c1cc2c3c(cccc3c1)C(N1CCOCC1)=N2 | -31 |
